Experimental findings from the supplement of paper PMC4604168 (melanoma cell lines) are described below.

Among the test systems are WM115; WM1716; WM1745; WM3526; WM3619; WM451Lu.
Common to all, as to experiment: cell count relative to DMSO control; melanoma cells; higher = more viable cells
Settings in all cases: library dose: low library concentration; 72 h

The list shows a part of the results. Most values come without repeats; read them as rough.
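Note: cell number obtained by counting DAPI-stained nuclei in high-throughput microscope images with image analysis software, screen run in 1,536-well plates.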

`Cc1cc(Nc2cc(N3CCN(C)CC3)nc(Sc3ccc(NC(=O)C4CC4)cc3)n2)n[nH]1` [Tozasertib] + CC(=O)O[C@@]12CO[C@@H]1C[C@H](O)[C@@]1(C)C(=O)[C@H](O)C3=C(C)[C@@H](OC(=O)[C@H](O)[C@@H](NC(=O)OC(C)(C)C)c4ccccc4)C[C@@](O)([C@@H](OC(=O)c4ccccc4)[C@H]21)C3(C)C [Docetaxel] (first compound 0.006 µM, partner dose 0.0001 µM): the cell count in the assay on WM115 was 72.7%; in the assay on WM1716, 51.3%; with WM1745 it was 58.4%; in the assay on WM3526 it was 53.1%; with WM3619 it was 70.1%; with WM451Lu, 70.5%.

As for `Cc1cc(Nc2cc(N3CCN(C)CC3)nc(Sc3ccc(NC(=O)C4CC4)cc3)n2)n[nH]1` [Tozasertib] + Cc1cc(N2CCOCC2)cc2[nH]c(-c3c(NC[C@@H](O)c4cccc(Cl)c4)cc[nH]c3=O)nc12 [BMS536924] (first compound 0.006 µM, partner dose 0.2 µM), the cell count stood at 94.9% in the assay with WM115; 96.4% in the assay with WM1716; 79.5% in the assay with WM1745; 90.7% in the assay with WM3526; 93.5% with WM3619; 94.8% in the assay on WM451Lu.

Consider `CC[C@]1(O)C[C@H]2CN(CCc3c([nH]c4ccccc34)[C@@](C(=O)OC)(c3cc4c(cc3OC)N(C=O)[C@H]3[C@@](O)(C(=O)OC)[C@H](OC(C)=O)[C@]5(CC)C=CCN6CC[C@]43[C@@H]65)C2)C1` [vincristine] + C[C@]1(c2nc3c(C(N)=O)cccc3[nH]2)CCCN1 [Veliparib] (first compound 0.0001 µM, partner dose 1.4 µM), for which the cell count was 54.9% in the assay on WM115; 39.6% in the assay on WM1716; 87.7% with WM1745; 63.8% in the assay with WM3526; 50.4% in the assay on WM3619; 53.5% in the assay on WM451Lu.

Regarding `N#CC[C@H](C1CCCC1)n1cc(-c2ncnc3[nH]ccc23)cn1` [ruxolitinib] + Oc1cc(-c2nc(-c3ccccc3)[nH]c2-c2ccncc2)ccc1Cl [L779450] (first compound 1 µM, partner dose 0.2 µM), the cell count in the assay with WM115 is 93%; with WM1716, 115%; in the assay with WM1745, 98%; in the assay with WM3526, 92.5%; in the assay on WM3619 it was 105%; with WM451Lu it was 119%.

Consider `Cc1cc(Nc2cc(N3CCN(C)CC3)nc(Sc3ccc(NC(=O)C4CC4)cc3)n2)n[nH]1` [Tozasertib] + NC(=O)c1ccc(N(C(N)=O)c2c(F)cccc2F)nc1-c1ccc(F)cc1F [VX702] (first compound 0.006 µM, partner dose 0.4 µM), for which the cell count in the assay on WM115 worked out at 82.6%; in the assay on WM1716, 94.3%; with WM1745 it was 80.4%; in the assay on WM3526, 82.9%; in the assay with WM3619, 90.4%; in the assay on WM451Lu it was 101%.

As for `Cc1cc(Nc2cc(N3CCN(C)CC3)nc(Sc3ccc(NC(=O)C4CC4)cc3)n2)n[nH]1` [Tozasertib] + O=C(O)C(=O)Nc1sc2c(c1C(=O)O)CCNC2 [TCS401] (first compound 0.006 µM, partner dose 1.66667 µM), the cell count in the assay on WM115 was 95.1%; in the assay on WM1716, 100%; with WM1745, 88.9%; in the assay on WM3526, 102%; with WM3619, 102%; in the assay on WM451Lu, 113%.

As to `Cc1cc(Nc2cc(N3CCN(C)CC3)nc(Sc3ccc(NC(=O)C4CC4)cc3)n2)n[nH]1` [Tozasertib] + CN(c1ncccc1CNc1nc(Nc2ccc3c(c2)CC(=O)N3)ncc1C(F)(F)F)S(C)(=O)=O [PF562271] (first compound 0.006 µM, partner dose 0.08 µM), the cell count stood at 72.3% in the assay with WM115; 81.3% with WM1716; 81.5% with WM1745; 92.9% in the assay with WM3526; 101% in the assay with WM3619; 78.2% in the assay with WM451Lu.

Take `N#CC[C@H](C1CCCC1)n1cc(-c2ncnc3[nH]ccc23)cn1` [ruxolitinib] + CN(NC(=O)CC(=O)NN(C)C(=S)c1ccccc1)C(=S)c1ccccc1 [STA4783] (first compound 1 µM, partner dose 0.006 µM): the cell count in the assay on WM115 stood at 103%; with WM1716 it was 86.8%; with WM1745, 59.4%; in the assay with WM3526 it was 127%; with WM3619, 73.4%; with WM451Lu, 100%.

For `CC[C@]1(O)C[C@H]2CN(CCc3c([nH]c4ccccc34)[C@@](C(=O)OC)(c3cc4c(cc3OC)N(C=O)[C@H]3[C@@](O)(C(=O)OC)[C@H](OC(C)=O)[C@]5(CC)C=CCN6CC[C@]43[C@@H]65)C2)C1` [vincristine] + NC1(c2ccc(-c3nc4ccn5c(=O)[nH]nc5c4cc3-c3ccccc3)cc2)CCC1 [MK2206] (first compound 0.0001 µM, partner dose 0.4 µM), the cell count was found to be 36% in the assay on WM115; 39.2% in the assay on WM1716; 83.7% in the assay on WM1745; 54.8% in the assay on WM3526; 44% in the assay with WM3619; 49% in the assay with WM451Lu.

In the case of `Cc1cc(Nc2cc(N3CCN(C)CC3)nc(Sc3ccc(NC(=O)C4CC4)cc3)n2)n[nH]1` [Tozasertib] + Oc1cc(-c2nc(-c3ccccc3)[nH]c2-c2ccncc2)ccc1Cl [L779450] (first compound 0.006 µM, partner dose 0.2 µM), the cell count in the assay with WM115 worked out at 90.5%; in the assay on WM1716 it was 91.7%; in the assay with WM1745, 96.7%; in the assay on WM3526, 81.2%; in the assay on WM3619 it was 97.7%; in the assay with WM451Lu, 114%.
